In paper PMC4280171, “Novel PDE4 Inhibitors Derived from Chinese Medicine Forsythia” (PLoS ONE, 2014):

Tested on: C57/BL6 mice challenged with LPS (E.coli, 3 mg/kg, i.t.)
Experiment: LPS-induced pneumonia (lung injury) model
Details: 1 mg/kg i.p. 10 min after LPS i.t. 3 mg/kg
Method: To assess any in vivo anti-inflammatory activity, four compounds [C2, C6, C7 and C9, 1 mg/kg, intraperitoneal (i.p.) injection] were administered in a LPS-induced pneumonia model. Briefly, compounds were administered to mice at various doses through an i.p. injection 10 min after mice were given LPS (i.t. 3 mg/kg). Mice were then euthanized 16 h later using pentobarbital; BAL was collected and assayed for IL1, IL6 and TNF cytokine levels. These compounds varied in their ability to ameliorate lavage cytokines, protein concentration, and total cell counts from LPS-treated mice (Fig. 5A–E).
Figure 5 PDE4 inhibitors ameliorate LPS induced lung injury. C57/BL6 mice were challenged with LPS (E.coli, 3 mg/kg, i.t.) followed by i.p. administration of vehicle, 1 mg/kg of compound 2, 6, 7 or 9. Mice were then euthanized 18 h later using pentobarbital, and lungs were lavaged with saline, harvested, and then homogenized. Lavage cytokine secretion (A–C), protein concentrations (D) and cell counts (E) were measured. F. H&E staining was performed on lung samples. Original magnification, ×20. The data represent n = 4–6 mice/group, *P<0.05 versus vehicle.
Male C57LB/6 mice (purchased from Jackson Laboratories) were acclimated at the University of Pittsburgh Animal Care Facility and maintained according to all federal and institutional animal care guidelines and under a University of Pittsburgh Institutional Animal Care and Use Committee (IACUC)-approved protocol (14023127). Male C57LB/6 Mice were deeply anesthetized with ketamine (80 to 100 mg/kg of body weight, intraperitoneally [i.p.]) and xylazine (10 mg/kg, i.p.), and then the larynx was well visualized under a fiber optic light source before endotracheal intubation with a 3/400 24-gauge plastic catheter. Compounds were diluted in PBS and administered to mice at 1 mg/kg through an i.p. injection 10 min after mice were given with LPS (i.t. 3 mg/kg). Mice were then euthanized 18 h later; Lavage fluids were collected from mice to measure protein and cytokine concentration. Lungs were isolated from mice for H&E staining.

SMILES	histological evidence of lung injury (H&E)
COc1cccc(CN2N=NC3C(=O)N(c4ccc(OC)c(OC)c4)C(=O)C32)c1 (stereo not drawn) [Compound 9]	diminished histological evidence of lung injury
COc1ccc([C@@H]2OC[C@H]3[C@@H]2CO[C@@H]3c2ccc(O[C@@H]3O[C@H](CO)[C@@H](O)[C@H](O)[C@H]3O)c(OC)c2)cc1OC [Compound 7, Forsythin]	diminished histological evidence of lung injury
COc1ccc(C2OCC3(O)C(c4ccc(OC)c(OC)c4)OCC23)cc1OC (stereo not drawn) [Compound 6]	diminished histological evidence of lung injury
